Some of the results follow.
T1: UNK ZnF1-3 (human, UniProt Q9C0B0 31-174)
T1 sequence: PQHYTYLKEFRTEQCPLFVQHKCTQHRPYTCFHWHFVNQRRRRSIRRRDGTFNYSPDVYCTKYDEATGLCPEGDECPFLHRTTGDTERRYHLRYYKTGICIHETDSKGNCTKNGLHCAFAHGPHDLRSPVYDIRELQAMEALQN

B1: chr7:112959530:112959531:-_ENSMUSG00000030879_ENSMUST00000124482|mus_hu|FALSE|FALSE (ssRNA)
RNA: GGGAGUUCUACAGUCCGACGAUCCUGCAGCGACCGACAGCCGCAUGUUUCCAACUUCUGCCCGCCCCUUGGAGGCCGGAACUGGAAACUGGAAGGUAGAGCCGGUGGCGGCAAUUUCAGGGAACGCAUGCGCCUUAGCUCGGACAACAGAGGAUUGAGCAUCA
B2: chr22:32879901:32879902:+_ENSG00000100225_ENST00000397426|hu_mus|hu_hu_hu_mus_False|8_108 (ssRNA)
RNA: GGGAGUUCUACAGUCCGACGAUCCUCUGCCAUAUGCAUGGCAUCCUGAAUUGACUCAGCUUCAACAUUUUGACUAGGCCCUUCCAUACUGUCAUCAGUCCAGGCAUCAAAUGGGGUGGCCUGUCCUUGGAAUGAAUCAGUCCCCAACAGAGGAUUGAGCAUCA
B3: chr10:102306293:102306294:+_ENSG00000166135_ENST00000299163|hu_hu|FALSE|FALSE (ssRNA)
RNA: GGGAGUUCUACAGUCCGACGAUCAGCCCCCUUAUACCAGAAGUUCACAGUGAUGGUAAUCCCCCCAUUUAGUAAUGACUCUAUGUGAUGCCACCAGUACAUUGGGAUGUAAAGAACAUCACCAGGGCCAACCACUGUUUCGUACAACAGAGGAUUGAGCAUCA
B4: chr11:106117246:106117247:-_ENSMUSG00000020706_ENSMUST00000021048|mus_mus|FALSE|FALSE (ssRNA)
RNA: GGGAGUUCUACAGUCCGACGAUCGCAGGCCUUACAAGUUAAAAGUAGAGGCUAGGAAGUAGAGUGCAAUAACUCGUAUCCUAAACGCUAGGAAGCAUCAACCAGAAGUUCUAUAUCUCUUCACAAAACUAGUGACCUCCAGUACAACAGAGGAUUGAGCAUCA
B5: chr1:60041781:60041782:+_ENSMUSG00000041040_ENSMUST00000036540|mus_hu|mus_mus_mus_hu_False|18_48 (ssRNA)
RNA: GGGAGUUCUACAGUCCGACGAUCAAGUUUACAAUAGUAAAGUAAAUGCAGUAGUGGCAAAUUUUCUUUUAUUUUCCUUCACAAAAGAAAACCUCAGUAACCCAGUCCUAGUCUUGGCAGAGAAAGCAGCUAUAAAUUCUGACUCAACAGAGGAUUGAGCAUCA
B6: chrX:70776531:70776532:+_ENSG00000147162_ENST00000373719|perfect_dup|FALSE|FALSE (ssRNA)
RNA: GGGAGUUCUACAGUCCGACGAUCCUGCUGCAGUACACUUGCUAAAUUUGAAUGGGCAGCAGCAAACUCUGGGAAGACUUCUAAUGCUUUACGAUACAAGCGAACUGCCUCUUCAAUGUUUCCCUGUUCUCGUUUGAUAUUGGCCAACAGAGGAUUGAGCAUCA
B7: chr8:74858975:74858976:-_ENSG00000154582_ENST00000284811|hu_mus|hu_hu_hu_mus_True|38_108 (ssRNA)
RNA: GGGAGUUCUACAGUCCGACGAUCGACCUUGUACGUAAAAUACAUGCACACUUUUGAUAGCACAUGUGAGGGGAUCUCUCUAAAAUUGACCUCGUUGGUUUCGUUCUCAGCAAACUGACCUGGACCACUCAACAUAGCCUUUAUCAACAGAGGAUUGAGCAUCA
B8: chr7:107790313:107790314:-_ENSG00000091129_ENST00000351718|hu_hu|motif|central (ssRNA)
RNA: GGGAGUUCUACAGUCCGACGAUCCUCUCUACCCAUAUGUUCAUAGUAUGAGAGGGCUGACAAACAAGUGCUUAGGAUAAACAUUCGGGAGAAAUGGAAUAUUGGCAAAGAGCUUAAAAAUUAAACAAAGGAAUUCAUGGCGUUCAACAGAGGAUUGAGCAUCA
B9: chr5:37680062:37680063:+_ENSMUSG00000029121_ENSMUST00000031004|mus_hu|mus_mus_mus_hu_False|8_48 (ssRNA)
RNA: GGGAGUUCUACAGUCCGACGAUCUUUGGGUGUAGCUGGUACCUCGUACACAGGACCGUCAUACAUGCCCCUGGAAACCCCUUGCAACCCGAAAACCUUAUUCCUGAUUUUGACGCGCUGGUACAGGUGCUCUGGGAACGCCUUCAACAGAGGAUUGAGCAUCA
B10: chr12:111957846:111957847:-_ENSG00000204842_ENST00000535949|hu_mus|FALSE|FALSE (ssRNA)
RNA: GGGAGUUCUACAGUCCGACGAUCUGCUAACUGGUUUGCCCUUGCCUCCCGUUUAAGAAAUUCUUCUGAGUUGUCCCUUUCUAAAGGAACCGUAUAUGAAGAUAAACUGCUAUCAUAUGUGGACACCACACCAUAAUUCUCUUCCAACAGAGGAUUGAGCAUCA
B11: chr7:123332509:123332510:-_ENSG00000106299_ENST00000223023|hu_hu|FALSE|FALSE (ssRNA)
RNA: GGGAGUUCUACAGUCCGACGAUCAGAGCAGGACACUGGCCGACUGUUCUGCUCCACUUUUUUUAGCUGAGCACCCUCUCUAAUUUGAUCUAAAAGAGCUGCUUUGUUUCCUGCAGUAGUUGGAACCUGAUGGUCCCCAUCAGACAACAGAGGAUUGAGCAUCA
B12: chr1:1341249:1341250:-_ENSG00000242485_ENST00000344843|hu_mus|FALSE|FALSE (ssRNA)
RNA: GGGAGUUCUACAGUCCGACGAUCUUCAUAGAUGGCCAGGUCCACAAGAACUUUCCUGUUGAGCUCCACCUGGCACUUAAUUAAGUUGACAAUGAAUGCUGGGUACUUUAAGCCAUGUUCCUGGGAGGCAGCUGUAAUUCGAUUCAACAGAGGAUUGAGCAUCA
B13: chr3:110853029:110853030:+_ENSG00000177707_ENST00000485303|hu_hu|motif|central (ssRNA)
RNA: GGGAGUUCUACAGUCCGACGAUCUGGUUGCUAAACAUACCACUCCCUCCUGGAAAUUACGGAACCAUCUACAUGUGAAACGGAGUCAUCUUCGUUUUCAUCAUAAUGUUCAUCACUGACAAACUUCAUUCCCAUUUUUAGAUCCAACAGAGGAUUGAGCAUCA
B14: chr2:30381511:30381512:+_ENSG00000119801_ENST00000261353|hu_hu|FALSE|FALSE (ssRNA)
RNA: GGGAGUUCUACAGUCCGACGAUCCAUGUGGCGGCCAGUGAGCAUGACCCGAUCUUGAACUUCACUGUACUGCAGGUUAACUACCUUGUUAAAAAGAAAUGCUCUGCCAGUGGCGCCUGUGAAACGAGUGGAGAUGAGUUCUGACAACAGAGGAUUGAGCAUCA
B15: 105360694_105360814_4497_3pUTR_ENSG00000107957_ENST00000369774|human|control|control (ssRNA)
RNA: GGGAGUUCUACAGUCCGACGAUCAAAAUAAGACGCAAACCAAAGGCCUGACAUAUAAGCCCCAAAUCAACAAACCUCUCCCGAAACAUGCAAAGGAACUGCCCGCCCAGAAAUACCCAAAAUAGUCUGUGCAGAUUAGGAAGACAACAGAGGAUUGAGCAUCA
B16: 21531409_21533144_2991_CDS_ENSMUSG00000033653_ENSMUST00000117598|mouse|control|control (ssRNA)
RNA: GGGAGUUCUACAGUCCGACGAUCGACUUCUUCCUCUCUCAAUGGGUCGUGCAGGUAGCAGUCAAUGAUCUUGUCAUACUGGUGUUCCCGCUCAUACAUAAAUUCACAGAUUUGAUAGAAUUCUGCCUUUUCUGCCAUGCGGAUCAACAGAGGAUUGAGCAUCA
B17: chrX:35985205:35985206:-_ENSMUSG00000048970_ENSMUST00000058265|mus_mus|motif|central (ssRNA)
RNA: GGGAGUUCUACAGUCCGACGAUCUUUGUUAGGGGCUUGCAGAUGGUGAUGCUCAUGGUGGUGCAUUCUGUUUCCAAUCCGGAUGUGGCCUAGCAUAGUGAUCAAGGCACAGAAGAUGCUUCCAAGCAUCACACCCUUCAAAAACAACAGAGGAUUGAGCAUCA
B18: chr6:114281168:114281169:-_ENSG00000196591_ENST00000368632|hu_hu|hu_hu_hu_mus_True|18_98 (ssRNA)
RNA: GGGAGUUCUACAGUCCGACGAUCUUCCAUUUUUCGGUAUAAGCCAUAAUUUAGCAGCAAGUUAUGAGUCAUCCGGAUUCUAUGAGGCUUCAUGGGAUGACCCUGGCCAUAAUAAUAAUUUCCAAUAUCACCAUCAUAGUAGUACAACAGAGGAUUGAGCAUCA
B19: chr4:17845017:17845018:+_ENSG00000109805_ENST00000514176|hu_mus|hu_hu_hu_mus_False|8_8 (ssRNA)
RNA: GGGAGUUCUACAGUCCGACGAUCGCUCUCUUAACUUGUAUCUUCAUUAAGGAACUCUGCAAGGUUAAGUUUACUUUUCUGUAGCGCAGCUGUUUUGGCUCGUCUGGGUAAUCUCAUCUUCAUUUCUAUUCUGGUUCCAUGAUCCAACAGAGGAUUGAGCAUCA
B20: chr2:71279510:71279511:+_ENSMUSG00000027018_ENSMUST00000028408|mus_hu|FALSE|FALSE (ssRNA)
RNA: GGGAGUUCUACAGUCCGACGAUCCAUAAACUCUAAACAGUAUUUUAAAAUAUACAAUCUCUCCAAAAGAAAAUAUUCAACUAAAGAUAGAUAACUUUUAGUAUAAGCAAAAUGUCACAAGAUUUUAAAAUUAAAGUCAUCAGACAACAGAGGAUUGAGCAUCA
B21: 100860264_100860384_2031_CDS_ENSMUSG00000027864_ENSMUST00000102694|mouse|control|control (ssRNA)
RNA: GGGAGUUCUACAGUCCGACGAUCGCCCGCAUCGGAGACCUGAGUCUGGUACAUUCGGUAUCGGAACUCAUCCUCCUGAACUUUCUCCAACACCACGCCAUCCACCCGAGACGCGUCGGUCCAGUUCUCCAGCUUCACCACGGACAACAGAGGAUUGAGCAUCA
B22: chr7:130122267:130122268:+_ENSMUSG00000030779_ENSMUST00000098062|mus_mus|motif|central (ssRNA)
RNA: GGGAGUUCUACAGUCCGACGAUCAUUUAUAUCCAUAUUCAACUGAACUGUCAUCAAAAUACAAUUUAUUUACAGUGGGUGCGGUGGUCAGUGGGUAUUCUAAGUGAGUUACGUCACUGAAACAUUAUAAAGGUAAAAGCAAUUCAACAGAGGAUUGAGCAUCA

Each binder was assayed against T1, UNK ZnF1-3 (assay: nsRBNS (natural sequence RNA bind-n-seq); RBNS binding buffer (assumed for nsRBNS): 25 mM Tris pH 7.5, 150 mM KCl, 3 mM MgCl2, 0.01% Triton X-100, 500 ug/ml BSA, 20 U/ml SUPERase-In, 4 C; UNK is unkempt and MSI1 is Musashi-1; names of the RNAs are library labels; protein concentration not given here; high values mean tight binding).

Binder	binding signal [enrichment R]
B1	0.586
B2	0.836
B3	1.05
B4	1.74
B5	1.05
B6	1.06
B7	0.706
B8	2.15
B9	0.745
B10	1.13
B11	0.695
B12	0.819
B13	0.65
B14	1.21
B15	1.89
B16	0.824
B17	0.948
B18	0.923
B19	0.413
B20	1.33
B21	0.964
B22	2.62

From publication PMC12136788
